The entries are a selection whose mix differs from that of the whole data set. Records with an inconclusive call do not appear. The source made the active and inactive calls. The call rests on the fitted dose curve; in most records, active means well fitted curve in the direction sought with a large enough effect; inconclusive means small, poorly fitted or top-dose-only effect, or effect the other way; inactive means no such curve, though single readings can be large or run the other way.
Molecular target: Cytochrome P450 2C9 (Homo sapiens) (UniProt P11712)
Assay: Cytochrome panel assay with activity outcomes
Conditions: recombinant CYP, pro-luciferin dealkylation, luminescence, p450-cyp2c9; series mostly up to 25.6 µM; activity, negative = inhibition: at the top concentration
On the % scale 0 is the no-effect control and ±100 the full control effect.

Chain of UniProt P11712 (P11712 whole entry, looked up): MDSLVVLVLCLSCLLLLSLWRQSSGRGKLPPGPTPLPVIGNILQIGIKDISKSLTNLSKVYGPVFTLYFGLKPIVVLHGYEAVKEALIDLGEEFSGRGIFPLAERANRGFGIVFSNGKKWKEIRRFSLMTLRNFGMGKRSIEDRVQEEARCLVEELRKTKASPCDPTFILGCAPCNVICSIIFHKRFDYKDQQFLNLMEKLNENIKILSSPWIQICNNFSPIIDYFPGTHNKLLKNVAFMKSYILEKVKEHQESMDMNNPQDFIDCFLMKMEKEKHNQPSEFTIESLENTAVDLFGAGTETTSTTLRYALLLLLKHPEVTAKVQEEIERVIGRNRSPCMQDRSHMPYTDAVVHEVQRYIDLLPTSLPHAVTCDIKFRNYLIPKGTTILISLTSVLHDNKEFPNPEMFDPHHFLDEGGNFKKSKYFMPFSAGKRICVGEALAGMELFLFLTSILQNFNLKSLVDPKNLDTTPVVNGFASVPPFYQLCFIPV

Row | Compound | activity, negative = inhibition | AC50
1 | Nc1nc2ccc(OC(F)(F)F)cc2s1 | inactive: -10.2% | –
2 | O=S(=O)(c1ccccc1)N1CCN(S(=O)(=O)c2ccccc2)c2ccccc21 | – | active: 0.251 µM
3 | CC[C@](C)(CN(C)C)OC(=O)c1ccccc1 | inactive: 9.77% | –
4 | C[C@@H]1C[C@H]2[C@@H]3C[C@H](F)C4=CC(=O)C=C[C@@]4(C)[C@]3(F)[C@H](O)C[C@]2(C)[C@@]1(O)C(=O)CO | inactive: -11.7% | –
5 | CCOc1cc(/C=N/n2cnnc2)ccc1OC(=O)c1cccc([N+](=O)[O-])c1 | – | active: 14.1 µM
6 | Cc1ccc(OCCNC(=O)/C=C/c2ccc([N+](=O)[O-])cc2)cc1C | inactive: 2.87% [at 57.1 µM] | –
7 | COC(=O)C1=C(C(=O)OC)C(c2cc(Cl)ccc2O)c2sc(=O)[nH]c2S1 (configuration not stated) | – | active: 4.47 µM
